# Test results taken from paper PMC4336329 (PLoS ONE, 2015).
# Screen size: about 310,000 compounds; about 2,200 (0.71%) showed an effect of 50% or more. The effect is printed as a negative number. The list shows a part of the results.
# Target: human ether-à-go-go-related gene (hERG) potassium channel (human, UniProt Q12809)
# Assay: primary screen, population patch clamp on CHO cells stably expressing hERG
# human ether-à-go-go-related gene (hERG) potassium channel, sequence (Q12809 whole entry, looked up): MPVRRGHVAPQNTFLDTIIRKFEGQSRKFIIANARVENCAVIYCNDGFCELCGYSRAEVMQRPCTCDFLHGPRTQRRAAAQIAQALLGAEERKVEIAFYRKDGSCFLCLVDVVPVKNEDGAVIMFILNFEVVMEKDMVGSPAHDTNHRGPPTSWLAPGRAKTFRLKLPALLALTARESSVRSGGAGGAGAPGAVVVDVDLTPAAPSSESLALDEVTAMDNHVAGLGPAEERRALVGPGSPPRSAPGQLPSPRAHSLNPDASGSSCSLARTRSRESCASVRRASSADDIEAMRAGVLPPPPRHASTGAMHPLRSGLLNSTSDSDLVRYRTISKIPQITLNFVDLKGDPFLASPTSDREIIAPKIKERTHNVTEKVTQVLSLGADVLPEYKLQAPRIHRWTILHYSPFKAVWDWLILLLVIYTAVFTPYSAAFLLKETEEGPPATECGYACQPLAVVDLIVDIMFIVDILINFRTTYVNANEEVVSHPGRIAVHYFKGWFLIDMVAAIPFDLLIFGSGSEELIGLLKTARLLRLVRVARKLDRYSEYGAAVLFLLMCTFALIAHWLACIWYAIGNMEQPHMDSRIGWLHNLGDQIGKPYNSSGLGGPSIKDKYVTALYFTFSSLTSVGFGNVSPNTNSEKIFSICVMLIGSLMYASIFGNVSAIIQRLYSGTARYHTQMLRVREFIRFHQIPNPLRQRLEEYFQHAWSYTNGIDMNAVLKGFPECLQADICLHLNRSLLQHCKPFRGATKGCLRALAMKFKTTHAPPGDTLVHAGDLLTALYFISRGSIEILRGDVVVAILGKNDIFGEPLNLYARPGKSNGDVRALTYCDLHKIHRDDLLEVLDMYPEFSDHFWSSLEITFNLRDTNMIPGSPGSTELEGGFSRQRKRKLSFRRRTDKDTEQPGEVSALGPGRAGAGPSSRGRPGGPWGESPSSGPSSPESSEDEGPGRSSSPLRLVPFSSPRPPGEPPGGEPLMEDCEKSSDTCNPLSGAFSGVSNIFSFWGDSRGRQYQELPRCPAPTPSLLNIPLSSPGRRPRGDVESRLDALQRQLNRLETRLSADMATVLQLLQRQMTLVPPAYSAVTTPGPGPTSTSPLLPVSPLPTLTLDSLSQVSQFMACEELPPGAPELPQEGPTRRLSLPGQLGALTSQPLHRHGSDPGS
row,Structure (SMILES),"hERG current change (%, negative = inhibition) at 1uM"
1,CC1CC(C)CN(S(=O)(=O)N2CCCC(C(=O)NCCCN3CCOCC3)C2)C1 (stereo not shown),15%
2,COc1cc(CN2CCC(C(=O)NC3CCCC3)CC2)ccc1O.O=C(O)C(=O)O,17.5%
3,O=C(Nc1ccc2nc(-c3ccccc3)oc2c1)c1ccco1,6.22%
4,CCCc1cc(C(=O)Nc2ccccc2C(=O)OC)no1,11.3%
5,COCc1ccc(C(=O)N2CCCC(Nc3ccc(C(C)C)cc3)C2)s1 (stereo not shown),14.2%
6,N#Cc1ccccc1NC(=O)c1ccccc1OCC(=O)NCc1ccco1,4.77%
7,COc1cccc(NC(=O)CCCCCN2C(=O)[C@@H]3Cc4ccccc4CN3C2=O)c1,4.78%
8,CS(=O)(=O)NNC(=O)c1sccc1OCc1ncc(C(F)(F)F)cc1Cl,17.9%
9,O=C(COC(=O)CCC(=O)c1ccc(F)cc1)Nc1ccc(N2CCOCC2)cc1,10.7%
10,CC1Cc2ccccc2N1C(=O)Cn1nnc(-c2ccccc2NC(=O)C2CCC2)n1 (stereo not shown),7.91%
11,COCCNC(=O)C(c1ccc(C)cc1)N(Cc1ccccc1)C(=O)CCC(=O)Nc1ccccn1 (stereo not shown),8.35%
12,Cc1ccc(-c2nc(P(=O)(c3ccccc3)c3ccccc3)c(N3CCOCC3)o2)cc1,-4.67%
13,CC(=O)N=c1sccn1CC(O)c1ccccc1 (stereo not shown),-3.31%
14,Cc1ccccc1NC(=S)N1CCCC(c2nc3ccccc3[nH]2)C1 (stereo not shown),-0.875%
15,Cc1ccc(CN2CCN(Cc3ccc(-n4cccn4)cc3)CC2CCO)cc1 (stereo not shown),-65.5%
16,CCOC(=O)c1ccc(NC(=O)CC2COc3ccccc3O2)cc1 (stereo not shown),11.9%
17,NS(=O)(=O)c1ccc(CNC(=O)c2ccccc2SCC(=O)N2CCCC2)cc1,1.87%
18,Cc1ccc(C(=O)Nc2nnc(-c3ccco3)o2)cc1,10.4%
19,CCN1CCCC1CNC(=O)c1cc(S(N)(=O)=O)ccc1OC (stereo not shown),20.8%
20,COc1ccc(CCN2CC(C(=O)NCCN3CCCC3=O)CCC2=O)cc1 (stereo not shown),-9.36%

row,Structure (SMILES),"hERG current change (%, negative = inhibition) at 1uM"
1,CCC(C)NC(=O)c1ccccc1NC(=O)c1ccc(CSc2ccc(C)cc2)cc1 (stereo not shown),4.1%
2,COc1ccccc1C(=O)N1CCN=C1SC,7.83%
3,CN(C)C(CNC(=O)c1cnc(Cl)c(Cl)c1)c1ccccc1 (stereo not shown),10.8%
4,COc1ccccc1NS(=O)(=O)c1cc(N/C(=N\S(=O)(=O)c2ccccc2)c2ccc(F)cc2)ccc1Cl,7.49%
5,CCCCCn1nc(C(=O)OCc2nnc(-c3ccccc3)o2)c2ccccc2c1=O,14.4%
6,COc1ccc(-c2cc(=O)oc3c(C)c(OC(C)C(=O)NCc4ccccn4)ccc23)cc1 (stereo not shown),6.43%
7,CC(C)CNC(=O)/C=C/C=C/CCCC/C=C/c1ccc2c(c1)OCO2,14.8%
8,COc1ccccc1CN1CCNC(=O)C1CC(=O)NCc1cn(C)nc1C (stereo not shown),12.5%
9,Cc1nc(CS(=O)(=O)c2ccccc2)cc(Sc2ccccc2Cl)n1,7.78%
10,CCCCNC(=S)N(CCN(CC)CC)Cc1cc2cc3c(cc2[nH]c1=O)OCCO3,15.9%
11,COc1ccc(OC)c(C(=O)NC(CC(N)=O)c2ccc(N3CCN(c4ccccn4)CC3)c([N+](=O)[O-])c2)c1 (stereo not shown),8.49%
12,C=CCn1c(SCC(=O)Nc2ccccc2OC)nc2c([nH]c3ccccc32)c1=O,10.5%
13,CCOC(=O)c1sc(NC(=O)CSc2nnc(-c3ccc(OC)cc3)n2CCOC)nc1C,-8.32%
14,COC(=O)c1ccccc1NC(=O)N1CCN(c2ccc(OC)cc2)CC1,-8.69%
15,CC(NCCOCCOc1ccccc1)c1ccccc1 (stereo not shown),6.29%
16,CC1CCN(c2ccccc2N)CC1,9.79%
17,CCNC(=S)N(CCN(CC)CC)Cc1cc2cc3c(cc2[nH]c1=O)OCCO3,13.8%
18,Cc1c(-c2nn(C)c(=O)c3ccccc23)oc2ccc(F)cc2c1=O,8.59%
19,CCn1c(CNC(=O)c2ccc(OC)cc2)nnc1SC,14.3%
20,Cc1nc(N2CCN(C)CC2)c2c3c(sc2n1)CCCC3,6.16%

row,Structure (SMILES),"hERG current change (%, negative = inhibition) at 1uM"
1,COc1ccc(-c2coc3cc(O)cc(O)c3c2=O)cc1,5.24%
2,CCOc1ccc(C(=O)C(C)OC(=O)CN2C(=O)NC(C)(C)C2=O)cc1 (stereo not shown),3.7%
3,COC(=O)c1ccc(/C=N/NC(=O)CNc2cccc(C)c2)cc1,5.65%
4,CCOP(=O)(OCC)C(NC(=O)c1ccccc1)C(Cl)(Cl)Cl (stereo not shown),0.5%
5,O=C(OCC(=O)N1CCCC1)c1c(Cl)cccc1Cl,14.6%
6,COc1ccc(S(=O)(=O)NNC(N)=S)cc1,11.1%
7,C=CCNC(=O)c1ccc(OC)cc1OC,10.9%
8,Cc1ccc(CCN2CC(C(=O)NCCCN(C)Cc3ccccc3)CC2=O)cc1 (stereo not shown),5.08%
9,Cc1ccc(NC(=O)CSCC(=O)N2CCOCC2)cc1,8.03%
10,Cc1ccc(SCC(=O)N2CCC(C(N)=O)CC2)cc1,14.7%
11,CC(C)C(=O)NC(c1ccco1)c1c(O)ccc2ccccc12 (stereo not shown),17%
12,COc1cccc2c1C(=O)CC1C2CCC2CC(=O)CCC21C (stereo not shown),1.41%
13,NC1=NC2(CCCCC2)n2c(nc3ccccc32)N1,4.39%
14,Cc1ccc(CSc2nnc(CC(=O)Nc3ccc(C)cc3)n2C)cc1,-4.45%
15,CCN(CC)S(=O)(=O)c1ccc(N2CCCC2)c(NC(=O)c2ccc(N3CCCC3=O)cc2)c1,10.7%
16,Nc1cc(=O)[nH]c(=O)n1Cc1ccco1,-0.744%
17,CCNc1nc(C(=O)O)nc(N2CCOCC2)n1,12.3%
18,O=C(N/N=C/c1cn(-c2ccccc2)nc1-c1ccccc1)c1ccco1,8.56%
